Source: the supplement of paper PMC11417369
This is one part of the list.

Tested on: PF3D7_0420300 AP2 domain 1 (GST-tagged)
Assay: gcPBM binding intensity (ln(normalized median fluorescence intensity)); higher = stronger DNA binding
Outline: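 GST-tagged P. falciparum DNA-binding domains, expressed in E. coli (about 25 μg on average), were applied for 1 h to an Agilent 4 × 180k array of primer-extended double-stranded 36-bp intergenic genomic probes plus negative controls. The binding buffer was 1× PBS with 1% milk, 0.2 mg/ml BSA, 0.5% salmon testes DNA and 0.03% Triton X-100. Bound protein was detected with Alexa488 anti-GST antibody and scanned at 488 nm. Binding intensity is the highest Masliner-normalised natural-log median intensity across replicate spots of either probe orientation.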

In order of rising “gcPBM binding intensity (ln)” value:
1. TTTTTTTTTTTTTTTTTTTTACCCCTTTTTCAAAAA [CACACA_negctrl_site1524]  8.39
2. TTTCTTTTAATAATTAAATATTTATTTATGATTATA [TGCATGCA_negctrl_site30]  8.76
3. TTTTATTAATATTATTTATCTTCTCAAAAGATATAT [XGTACX_negctrl_site202]  8.82
4. TGGTTTCAATAATTAATAAAATATATTATTGTGAAA [CACACA_negctrl_site442]  8.84
5. TTGTTACTGTTTTGGTGTACAAAAAAAAAAAATATA [XGTACX_site5762]  8.92
6. TCATCCGTTTTAAGAAGTACATATTTGAACATATAA [XGTACX_site8040]  8.92
7. TTGTATAATTTAACAAGTACAAAATAAATTTGTATA [XGTACX_site5505]  8.93
8. TATATAAAAATCAATTGTACTTTTTTTTTTTTTTTT [XGTACX_site7327]  8.95
9. TGCATATTACTTTTTCACATAAAAATGATCCGATTA [GTGCAC_negctrl_site526]  8.95
10. ATTGCAAGTTACTTGTGTACTTATAAGATTAAAAGA [XGTACX_site7696]  8.99
11. TTATTTCGAAGAAAATGTACATATATAAATATATAC [XGTACX_site3308]  9
12. ATTATAAAAATATATTGTACACAAAAATGTTTATAT [XGTACX_site5066]  9.02
13. CCAAATTTATTTTGTAGTACTCCGTATAGATCAACA [XGTACX_site7945]  9.03
14. CATTAAAATTGAGAGATGCACTTTTTAAGACCTTGT  9.03
15. TTAACTCTGGAGAAAAGTACATAGTATCTGGTAACA [XGTACX_site4941]  9.05
16. TGAGATATAAAAATATGTACTTATGTATAAATATTT [XGTACX_site7746]  9.07
17. AAAAAATGACTTAATATGAGCATATATTATGTTGTT [CACACA_negctrl_site1609]  9.07
18. AAAATATAAAAATGAAGTACAAAAAAAAAAAAAAAA [XGTACX_site8132]  9.09
19. AAAACATTGTTTATGTGTACATAATTATATTTACAA [XGTACX_site6926]  9.1
20. TTAATACATTAAATATGTACTTATATATCTCAACTA [XGTACX_site3997]  9.11
21. TCTATACCAGAAAAGGGTACATATTTTGGATTGAAC [XGTACX_site8402]  9.11
22. TGTAAATATTTATTCACACATAATCAATTAGAAAAA [CACACA_site5944]  9.12
23. CGAATATATTCTAGACGTACTATATAATATATATAT [XGTACX_site4953]  9.12
24. TGGACAATTGTTTATTGTACTTAAATTTTATGTTCT [XGTACX_site8974]  9.12
25. ATAATATATTTATAATGTACAAACCATTTGTATTAA [XGTACX_site4370]  9.12
26. TTTATTTTTTAATGTTGTACAATGTTGTTTAATCAA [XGTACX_site6489]  9.13
27. ACCTGAAGAGTCAAACGTACAAATATTATAAAATGA [XGTACX_site3188]  9.13
28. TATCTTATATTTACACGTACGTAGAATTTATAAGTT [XGTACX_site3460]  9.14
29. CATAGGATTATACTTTTGGAATATTATTAAATATGT [XGTACX_negctrl_site75]  9.14
30. TTTTATGGAAAGTGTTGTACATATTTTTGTATATGT [XGTACX_site7356]  9.15
31. ATATATATATATATATGTACATATTTATTTATTTAT [XGTACX_site5161]  9.15
32. ATATATAAAATTATATGTACATATATAATATATATA [XGTACX_site529]  9.16
33. ATATTATGAATTGTCACACATATATTTAAAAATGTA [CACACA_site4852]  9.16
34. TTCAATTAAAAAATATGTACGCATAAATTGATATAT [XGTACX_site4289]  9.18
35. ATAATAAAAATATATACATGCATTATTATATATATA [TGCATGCA_site799]  9.19
36. TTTTAACAAAAAAAAAGAAAAGAAAAGAAAATAATA [XGTACX_negctrl_site530]  9.2
37. ATCACAAAATGGAATGTTCTATGATATATATGTATA [XGTACX_negctrl_site460]  9.21
38. TAAATATGTGTATGTAGTACATAGTGTTTTTTTTTT [XGTACX_site3748]  9.22
39. TATATTTATATCCACTTCGTTTAACGCACAGATATA [CACACA_negctrl_site954]  9.23
40. ATTATTATTATATTTTGTACATATGTAACAATATAT [XGTACX_site5780]  9.23
41. ATAAATATATATATCACACATATATAATTATATATA [CACACA_site4787]  9.25
42. AAAAAAAATTAAATAAATAAATATACACATATATAT [GTGCAC_negctrl_site394]  9.26
43. ACTATCATTCATAGGTGTACCTAAATATATATATAT [XGTACX_site1696]  9.27
44. TACTGTGATAGCACCACACACGCAAAAGTGGGTATA [CACACA_site4749]  9.28
45. CTCATTCTTTTTTGATGTACTTTTTTTTTTTAAGTT [XGTACX_site2875]  9.3
46. TATGTAGTTTTAAAGTGTACTTATATATATTAATTG [XGTACX_site378]  9.3
47. AATATATAAATCTATTGTACATAAAGAGGATAATAA [XGTACX_site1022]  9.31
48. TTTAAATCGTTAAAAACACACAAAAAAAATCAATTA [CACACA_site2519]  9.34
49. AAATTATATATATTACGTACATAGAACTTTACAGAA [XGTACX_site6646]  9.34
50. AGTAGCATATTCTATTGTACATATATATATATATAT [XGTACX_site2980]  9.35
51. TGTATAAAGATATATACACACATATTTATTTATATA [CACACA_site6493]  9.35
52. AAGAAATAAAAAGAATGTACACAATATGTATTATAA [XGTACX_site4733]  9.35
53. ATAATATTTTTTAATTGTACGTTCCATTTTTTTAAA [XGTACX_site1227]  9.36
54. ATATGTATATATGTATGTACGTACAAATTGTTGTAA [XGTACX_site8832]  9.38
55. TACATACATATATTATGTACATATTTTATTTTTATT [XGTACX_site1642]  9.38
56. ATAAATAAATAAATAAATAAATATACATATACATAT [CACACA_negctrl_site205]  9.39
57. TTTTTTTCTTTTCAAACACACAATTGGTATATATTA [CACACA_site3320]  9.41
58. ACATGTCAAACATTTGCACACAAAAAAATAAAAATT [CACACA_site691]  9.41
59. TATATATATATGTGCACACATATATAATATGTATAA [CACACA_site715]  9.41
60. ATTAAAAACGGGTGTACACATATATAAATATATATA [CACACA_site4539]  9.46
61. TCTTTTTCTTCTTATGTGCACATCAATTATGCTTCT  9.49
62. ATATACTATATTTTAACACACAAAAAAAAAAAATAT [CACACA_site1091]  9.5
63. TACAAAATAACTAGCACACATATGTATAAACCTATA [CACACA_site3718]  9.54
64. GTTATATTTTTTTTTTGTACATAATATTGTATTGAC [XGTACX_site6338]  9.56
65. GTTATACACATCAACACACACATACAACGTGGTGTA [CACACA_site6677]  9.56
66. CAAAAAACAACAGATCGTACAAAATATTATATATAT [XGTACX_site2285]  9.58
67. TATATATATTTTTATGCACACACAAAGAAAATTTTC [CACACA_site8931]  9.6
68. AAAAAAAATTCGTGTGTGCGCATATATAATATATAA  9.6
69. AGCATTTTAAGTTATACACACATTTTGAATCTATAT [CACACA_site7599]  9.6
70. TACTTACTTACTTACTCACACACATATACAAAGAAA [CACACA_site3348]  9.63
71. AGCACAGACTAATAAACACACACATATATATATATA [CACACA_site8021]  9.64
72. GATGATTATATATATACGCACACTTTTTTTTTTTTT [CACACA_site2652]  9.65
73. AAGTTTTTTTTTAACACACACATAATAAAATAAATA [CACACA_site446]  9.65
74. TATATACAAAAATGCACACGAAAAGTAATATATATA [CACACA_site4173]  9.66
75. CAACAATTTCGTCATACACACATTCAGAATATAGAT [CACACA_site7166]  9.68
76. TCTAACATATAATATTCACACACATATATATATTAT [CACACA_site8236]  9.69
77. CACACGTATAAATATACACACTAAAATACACGCACA [CACACA_site7876]  9.73
78. ATGTTACACCGACACACACACATAAAAAAACAAAAA [CACACA_site5750]  9.86
79. AAGCATACATCAAGCACACACACACCCACAGAGACA [CACACA_site4362]  9.89
80. AAATAACACATATATACACACATATAACTATAATAT [CACACA_site7298]  9.9
81. AAAAAAAAAAAAAACACACACACAATAGTATATAAA [CACACA_site957]  9.94
82. TAATAATACCCAAGCACACACACACCCATATATATA [CACACA_site4831]  10
83. AATATAAATAAAAACACACACAATGGTACATATATA [CACACA_site3671]  10
84. AATACAGATAATACAACACACAAGTAATATAAACCT [CACACA_site5900]  10.1
85. TATCCATATTTGTTCACACACACACCGATTTATATA [CACACA_site5888]  10.1
86. TTGAAAAATGAGCACACACACAAATACATACATATT [CACACA_site3231]  10.1
87. ATAGTATACGGACACACACACACACCGATATATATA [CACACA_site5032]  10.3
88. GATAATTACGGACACACACACACACGCACAACTAAA [CACACA_site7254]  10.3
89. ATTATGCACCAACACACACACACACTCCTAAAAAAT [CACACA_site8822]  10.3
